“And” between values parts separate entries of the source, which are not always exact repeats. Identical values can stand only once. The inconclusive results got no clear call from the source; some entries with a clear call stand among them for comparison. Where the call is inconclusive, the potency comes from a doubtful curve fit. The source made the active and inactive calls. Calls come from the whole dose curve; as a rule, active = well fitted inhibition curve with a large enough effect in the signal ratio in the repeat runs (not every such curve was filed as active); inconclusive = weak or mixed curves, or effect the other way; inactive = no such curve, though single readings can be large or run the other way; the % refers to the signal ratio.
Target: Peroxisome proliferator-activated receptor delta (Homo sapiens) (UniProt Q03181)
UniProt Q03181, sequence (Q03181 whole entry, looked up): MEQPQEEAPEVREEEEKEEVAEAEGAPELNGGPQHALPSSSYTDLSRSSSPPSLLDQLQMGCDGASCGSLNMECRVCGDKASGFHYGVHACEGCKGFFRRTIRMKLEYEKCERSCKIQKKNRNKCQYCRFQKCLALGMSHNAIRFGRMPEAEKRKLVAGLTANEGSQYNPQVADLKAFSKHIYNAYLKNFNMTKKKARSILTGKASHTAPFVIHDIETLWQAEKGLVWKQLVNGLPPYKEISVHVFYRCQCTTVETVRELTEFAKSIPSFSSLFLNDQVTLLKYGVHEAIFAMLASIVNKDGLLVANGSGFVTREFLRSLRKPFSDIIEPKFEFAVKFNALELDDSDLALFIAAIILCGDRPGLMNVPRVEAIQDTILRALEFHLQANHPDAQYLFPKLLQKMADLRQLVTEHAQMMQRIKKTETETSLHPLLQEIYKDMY
Assay: qHTS assay to identify small molecule antagonists of the peroxisome proliferator-activated receptor delta (PPARd) signaling pathway (AID 743215);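 note: cells stimulated with agonist L165041 at 300 nM final during compound exposure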
Settings: HEK293H PPARd-UAS-bla, beta-lactamase FRET ratio, antagonist, 17 h; ratio activity, negative = inhibition: at 62 µM (top of the series) unless noted
Procedure, shortened: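 PPARd-bla HEK293H cells (UAS-bla reporter) preincubated 5 h, then given compound plus 300 nM final L165041 agonist for 17 h at 37 C. Beta-lactamase activity read by LiveBLAzer B/G FRET substrate fluorescence after 2 h at room temperature.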
% is set by controls: 0 for no effect and ±100 for the full control effect; potency is the fitted concentration of half-maximal effect; tags give direction and shape of the fitted curve or compound fluorescence and quenching.

Q: For `CCc1cc(OC)c(C[C@H](C)N)cc1OC`, which “ratio activity, negative = inhibition” value is on record?
A: The value was inactive: 3.69% [at 80.4 µM].

Q: Which “ratio activity, negative = inhibition” value does the source give for `O=C(NC(=O)c1c(F)cccc1F)Nc1cc(Cl)c(OC(F)(F)C(F)F)c(Cl)c1` here?
A: The value was inactive: 0.811%.

Q: With `CCOP(=S)(OCC)SC(CCl)N1C(=O)c2ccccc2C1=O` (stereo not given) as the compound, how does the Potency read?
A: The Potency was inconclusive: 61.6 µM [inhibitor, single point].

Q: For `c1csc(-c2ccc(-c3cccs3)s2)c1`, which Potency is on record?
A: The Potency was inconclusive: 61.6 µM [activator, single point].

Q: Which “ratio activity, negative = inhibition” value does the source give for `COc1ccc2[nH]cc(CCN(C(C)C)C(C)C)c2c1` here?
A: Its value is inactive: 1.05% [at 80.4 µM].

Q: `Cc1cccc(Cc2cnc[nH]2)c1C` was tested. Which “ratio activity, negative = inhibition” value did it give?
A: The value was inactive: -5.15%.

Q: How did the “ratio activity, negative = inhibition” value turn out when `COC[C@@H](NC(C)=O)C(=O)NCc1ccccc1` was run?
A: The value was inactive: -0.741%.

Q: For `CCc1cccc(CC)c1N(COC)C(=O)CCl`, which Potency is on record?
A: Its Potency is inconclusive: 27.5 µM [rising, partial curve, poor fit].

Q: And the ratio activity, negative = inhibition?
A: The ratio activity, negative = inhibition was inconclusive: -47.3%.

Q: Which ratio activity, negative = inhibition does the source give for `CCN(CC)CCc1c[nH]c2ccccc12` here?
A: Its ratio activity, negative = inhibition is inconclusive: -0.711% [at 80.4 µM].

Q: How did the ratio activity, negative = inhibition turn out when `CC(C)[C@H](C(=O)O[C@H](C#N)c1cccc(Oc2ccccc2)c1)c1ccc(Cl)cc1` was run?
A: Its ratio activity, negative = inhibition is inconclusive: -26%.

Q: How did the ratio activity, negative = inhibition turn out when `O=C(N[C@@H]1N=C(c2ccccc2F)c2cccc3c2N(CC3)C1=O)c1cc2ccccc2[nH]1` was run?
A: The ratio activity, negative = inhibition was inconclusive: -30.1%.

Q: Which Potency does the source give for `CN(C)c1ccc(N)cc1` here?
A: The Potency was inconclusive: 60.2 µM [inhibitor, single point].

Q: With `CC(C)(C)OO` as the compound, how does the “ratio activity, negative = inhibition” value read?
A: The value was inactive: 3.48%.

Target: Bile acid receptor (Homo sapiens) (UniProt Q96RI1)
UniProt Q96RI1, sequence (Q96RI1 whole entry, looked up): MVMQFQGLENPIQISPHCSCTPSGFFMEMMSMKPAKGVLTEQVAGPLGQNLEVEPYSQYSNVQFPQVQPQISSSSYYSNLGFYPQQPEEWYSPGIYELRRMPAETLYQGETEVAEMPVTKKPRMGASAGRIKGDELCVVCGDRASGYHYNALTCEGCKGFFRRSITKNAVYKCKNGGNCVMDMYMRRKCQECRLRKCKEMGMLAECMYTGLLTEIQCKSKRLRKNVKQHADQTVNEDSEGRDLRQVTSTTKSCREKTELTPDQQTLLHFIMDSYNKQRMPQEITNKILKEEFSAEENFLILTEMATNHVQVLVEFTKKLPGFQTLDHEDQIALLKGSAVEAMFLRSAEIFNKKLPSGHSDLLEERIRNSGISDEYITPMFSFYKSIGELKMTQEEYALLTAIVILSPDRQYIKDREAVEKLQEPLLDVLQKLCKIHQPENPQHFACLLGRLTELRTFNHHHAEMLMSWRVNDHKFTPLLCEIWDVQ
Assay: qHTS assay to identify small molecule antagonists of the farnesoid-X-receptor (FXR) signaling pathway (AID 743217)
Settings: HEK293T FXR-UAS-bla, beta-lactamase ratio, CDCA-stimulated, 16 h; activity change, negative = inhibition: at 62.6 µM (top of the series) unless noted
Procedure, shortened: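 FXR-UAS-bla HEK 293T cells (beta-lactamase reporter) given compound plus chenodeoxycholic acid (50 uM final), 16 h at 37C. LiveBLAzer B/G FRET substrate added for 2 h at room temperature; fluorescence read.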

Q: With `CCCCNC(=O)n1c(NC(=O)OC)nc2ccccc21` as the compound, how does the Potency read?
A: The Potency was inconclusive: 12.2 µM and inconclusive: 11 µM.

Q: What does the source list for `CC1(C)C(C(=O)OC(C#N)c2cccc(Oc3ccccc3)c2)C1(C)C` (stereo not given)?
A: Potency: inconclusive: 48.9 µM [inhibitor, partial curve]; activity change, negative = inhibition: inconclusive: 8.98% [at 81.1 µM]

Q: `CCC(C)c1cc([N+](=O)[O-])cc([N+](=O)[O-])c1O` (stereo not given) was tested. Which Potency did it give?
A: The Potency was “inactive”.

Q: How did the Potency turn out when `CCC(C)c1cccc(C(C)CC)c1O` (stereo not given) was run?
A: Its Potency is inconclusive: 9.77 µM [inhibitor, partial curve, poor fit].

Q: `COP(=S)(OC)Oc1ccc([N+](=O)[O-])cc1` was tested. Which Potency did it give?
A: The Potency was “inactive”.

Q: With `CCc1cccc(CC)c1N(COC)C(=O)CCl` as the compound, how does the activity change, negative = inhibition read?
A: The activity change, negative = inhibition was inconclusive: 6.22%.

Q: With `CCC(C)c1ccc(O)cc1` (stereo not given) as the compound, how does the Potency read?
A: Its Potency is “inactive”.

Q: With `Cc1cc(Cl)ccc1OCCCC(=O)O` as the compound, how does the activity change, negative = inhibition read?
A: The activity change, negative = inhibition was inconclusive: 14.4%.

Q: How did the “activity change, negative = inhibition” value turn out when `C[C@]12Cc3nonc3C[C@@H]1CC[C@@H]1[C@@H]2CC[C@@]2(C)[C@H]1CC[C@]2(C)O` was run?
A: Its value is inactive: -18.6%.

Q: For `Cc1ccc2cc3c(ccc4ccccc43)c3c2c1CC3`, which activity change, negative = inhibition is on record?
A: The activity change, negative = inhibition was inconclusive: 4.28%.

Source: PubChem BioAssay (Tox21)
